Substitutions are numbered along the chain they refer to. Recombinant human monoclonal antibodies (heavy:light variable regions). ELISA EC50 on the named antigen, from 10 µg/ml down; IC50 / IC90 against spike pseudovirus on 293T-ACE2 cells, 48 h; lower = stronger. Calls: IC50 above 1,000 ng/ml = non-neutralizing; EC50 above 2,000 ng/ml = non-binder. The source prints 1000 for neutralization that was not reached; it is given as >1000 ng/ml. A few antibodies were first reported in earlier work of the same group.

First the molecules themselves.
B1: C2046 (protein)
chain 1: VQLVESGGGVVQPGRSLRLSCAASGFTISRYGMHWVRQAPGKGLEWVAVILYDGSNKYYADSVKGRFTISRDNSKNTLYLQMNSLRAEDTAVYYCAKVGGPYCGGGSCYGGYFDYWGQGTLVTVSS
chain 2: IRMTQSPSSLSASVGDRVTITCQASQDISNYLNWYQQKPGKAPKLLIYDASNLETGVPSRFSGSGSGTDFTFTISSLQPEDIATYYCQQYDNLPGFGPGTKVDIK
B2: C2037 (protein)
chain 1: EVQLVESGGGLIQPGGSLRLSCAASGFTVSSNYMNWVRQAPGKGLEWVSVIYSGGSTYYADSVKGRFTISRDNSKNTLYLQMNSLRAEDTAVYYCARDLELKGAFDIWGQGTMVTVSS
chain 2: DIQLTQSPSFLSASVGDRVTITCRASQGISSYLAWYQQKPGKAPKLLIYAASTLQSGVPSRFSGSGSGTEFTLTISSLQPEDFATYYCQQLNSYPPWTLGQGTKVEIK
B3: C2044 (protein)
chain 1: B2 chain 1 with T28I, S31N, N35S, V50L, L101E, K102A, A104G, I107Y, M113L
chain 2: SYELTQPPSVSVAPGQTARITCGGNNIGIKSVHWYQQKPGQAPVVVVYDDSDRPSGIPERFSGSNSGNTATLTISRVEAGDEADYYCQVWDSSSDLYVFGTGTKVTVL
B4: C2049 (protein)
chain 1: VQLVQSGAEVKKPGSSVKVSCKASGGTFSSYAISWVRQAPGQGLEWMGGIIPMFGTANYAQKFQGRVTITADESTSTASMELSSLRSEDTAVYYCARAGYCTSTVCSRLAPRGWLDPWGQGTLVTVSS
chain 2: EIVLTQSPATLSLSPGERAILSCRASQSVSSYLAWYQQKPGQAPRLLIYDASNRATGIPARFSGSGSGTDFTLTISSLEPEDFAVYYCQQRSNWPPTFGQGTRLEIK
B5: C2042 (protein)
chain 1: QVQLVQSRAEVKKPGSSVKVSCKASGGTISTYAISWVRQAPGQGLEWMGGIIPIFGTANYAQKFQGRVTITADESTSTAYMELSSLRSEDTAVYYCARNSREDGVWSGYYTSVYYGMDVWGQGTTVTVSS
chain 2: QSALTQPASVSGSPGQSITISCTGTSSDVGSYNLVSWYQQHPGKVPKLMIYEGNKRPSGISNRFSGSKSGNTASLTISGLQAEDEADYYCCSYASSNTRVFGTGTKVTVL
B6: C2043 (protein)
chain 1: EVQLVESGGGLIQPGGSLRLSCAASEFTVSSNYMNWVRQAPGKGLEWVSVIYSGGSTYYADSVKGRFTISRDNSKNTLYLQMNSLRAEDTAVYYCARELKGRFDYWGQGTLVTVSS
chain 2: IRMTQSPSSLSASVGDRVTITCQASQDISNYLNWYQQKPGKAPKLLIYDASNLETGVPSRFSGSGSGTDFTFTISSLQPEDIATYYCQQYDNLSMYTFGQGTKLEIK
B7: C2045 (protein)
chain 1: QVQLVQSGAEVKKPGASVKVSCKASGYTFTGYYLHWVRQAPGQGLEWMGWINPVSGGTNYAQHFQGRVTMTRDTSITTAYMELSRLRSDDTAVYYCARNYPPLLQQLGFMDVWGQGTTVTVSS
chain 2: QSVLTQPPSVSAAPGQKVTISCSGSSSNIGNNYVSWYQQLPGTAPKLLIYESNRRPSGIPDRFSGSKSGTSATLGITGLQTGDEADYYCGTWASSLSADWVFGGGTKLTVL
B8: C2038 (protein)
chain 1: QVQLVQSGAEVKKPGASVKVSCKASGYTFTSYDINWVRQATGQGLEWMGWMNPNSGSTGYAQKFQGRVTMTRNTSISTAYMELSSLRSEDTAVYYCARVSDILTGYIDYWGQGTLVTVSS
chain 2: B3 chain 2 with I29S, S31N, V45L, D95E, L96P

One assay concerns the target SARS-CoV-2 Wuhan-Hu-1 spike pseudovirus. Description: pseudovirus neutralization IC50; higher = weaker neutralization. On the procedure:
(§1)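 Single-round luciferase reporter pseudovirus mixed with antibody dilutions and put on 293T-ACE2 cells for 48 h; signal relative to no-antibody wells, four-parameter fit.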
With B1, the “pseudovirus neutralization IC50” value amounted to 0.366 µg/mL.
Still for that read-out and setting: next, B2: 0.0557 µg/mL.
On the same count and under the same terms, next, B3: 0.0105 µg/mL; B4: 0.00552 µg/mL; B5: over 1 µg/mL.
Still for that read-out and setting: next, B6: 0.0775 µg/mL; B7: 0.0129 µg/mL; B8: 0.51 µg/mL.

The target is the same in a further assay. In words: pseudovirus neutralization IC90; higher = weaker neutralization. As for the experimental part:
as §1
Consider B1, for which the “pseudovirus neutralization IC90” value was over 1 µg/mL.
On the same count and under the same terms, next, B2: 0.39 µg/mL; B3: 0.074 µg/mL.
Regarding B4, the “pseudovirus neutralization IC90” value was 0.0669 µg/mL.
Still for that read-out and setting: next, B5: over 1 µg/mL.
On the same count and under the same terms, next, B6: 0.759 µg/mL; B7: 0.0737 µg/mL.
The same measure, in the same setting: next, B8: over 1 µg/mL.

A further assay addresses SARS-CoV-2 Wuhan-Hu-1 spike receptor-binding domain. Description: ELISA binding EC50; higher = weaker binding; ELISA of recombinant human antibody on coated antigen, from 10 µg/ml in fourfold dilutions; four-parameter fit. (An ELISA detects its analyte on a solid surface through an enzyme-linked reagent.)
For the molecule B1, the “ELISA binding EC50” value was found to be 0.00167 µg/mL.
Same read-out and setting: next, B2: 0.00254 µg/mL; B3: 0.00261 µg/mL; B4: 0.00194 µg/mL.
On the same count and under the same terms, next, B5: 0.00297 µg/mL; B6: 0.00239 µg/mL; B7: 0.000716 µg/mL.
The same measure, in the same setting: next, B8: 0.00172 µg/mL.

Source of the values: the supplement of paper PMC8674133.
